Assay results published in the supplement of paper PMC8728848.
The list shows a part of the results.

Tests used:
Assay in all cases: glycan array binding signal (z-score within array); higher = stronger binding
Settings in all cases: glycan notation: IUPAC condensed, linker removed
Fuc(a1-2)Gal = biological target: Fuc(a1-2)Gal
Summary of the method: (§1)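 Glycan array data were curated from 3228 arrays in the Consortium for Functional Glycomics database and kept only where the protein sequence was available. Glycan names were converted to IUPAC-condensed notation, and columns mapping to the same glycan were averaged. The binding signal is a within-array Z-score, averaged across arrays of the same protein sequence at different concentrations or buffers and across linkers. Negative Z-scores can be read as non-binding.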

Fuc(a1-2)Gal(b1-3)GalNAc = biological target: Fuc(a1-2)Gal(b1-3)GalNAc
Summary of the method: as §1

[1] = biological target: Fuc(a1-2)Gal(b1-3)GalNAc(a1-3)[Fuc(a1-2)]Gal(b1-4)Glc
Summary of the method: as §1

[2] = biological target: Fuc(a1-2)Gal(b1-3)GalNAc(a1-3)[Fuc(a1-2)]Gal(b1-4)GlcNAc
Summary of the method: as §1

[3] = biological target: Fuc(a1-2)Gal(b1-3)GalNAc(b1-3)Gal
Summary of the method: as §1

[4] = biological target: Fuc(a1-2)Gal(b1-3)GalNAc(b1-3)Gal(a1-4)Gal(b1-4)Glc
Summary of the method: as §1

[5] = biological target: Fuc(a1-2)Gal(b1-3)GalNAc(b1-4)[Neu5Ac(a2-3)]Gal(b1-4)Glc
Summary of the method: as §1

Fuc(a1-2)Gal(b1-3)GlcNAc = biological target: Fuc(a1-2)Gal(b1-3)GlcNAc
Summary of the method: as §1

[6] = biological target: Fuc(a1-2)Gal(b1-3)GlcNAc(b1-2)Man(a1-3)[Fuc(a1-2)Gal(b1-3)GlcNAc(b1-2)Man(a1-6)]Man(b1-4)GlcNAc(b1-4)GlcNAc
Summary of the method: as §1

[7] = biological target: Fuc(a1-2)Gal(b1-3)GlcNAc(b1-2)Man(a1-3)[Fuc(a1-2)Gal(b1-3)GlcNAc(b1-2)Man(a1-6)]Man(b1-4)GlcNAc(b1-4)[Fuc(a1-6)]GlcNAc
Summary of the method: as §1

[8] = biological target: Fuc(a1-2)Gal(b1-3)GlcNAc(b1-3)Gal(b1-4)Glc
Summary of the method: as §1

[9] = biological target: Fuc(a1-2)Gal(b1-3)GlcNAc(b1-3)GalNAc
Summary of the method: as §1

[10] = biological target: Fuc(a1-2)Gal(b1-3)GlcNAc(b1-3)[Fuc(a1-2)Gal(b1-3)GlcNAc(b1-6)]GalNAc
Summary of the method: as §1

[11] = biological target: Fuc(a1-2)Gal(b1-3)GlcNAc(b1-3)[Gal(b1-4)GlcNAc(b1-6)]Gal(b1-4)Glc
Summary of the method: as §1

[12] = biological target: Fuc(a1-2)Gal(b1-3)GlcNAc(b1-3)[Neu5Ac(a2-6)Gal(b1-4)GlcNAc(b1-6)]Gal(b1-4)Glc
Summary of the method: as §1

[13] = biological target: Fuc(a1-2)Gal(b1-3)GlcNAc6S
Summary of the method: as §1

[14] = biological target: Fuc(a1-2)Gal(b1-3)[Fuc(a1-4)]GlcNAc
Summary of the method: as §1

[15] = biological target: Fuc(a1-2)Gal(b1-3)[Fuc(a1-4)]GlcNAc(b1-2)Man(a1-3)[Fuc(a1-2)Gal(b1-3)[Fuc(a1-4)]GlcNAc(b1-2)Man(a1-3)]Man(b1-4)GlcNAc(b1-4)GlcNAc
Summary of the method: as §1

[16] = biological target: Fuc(a1-2)Gal(b1-3)[Fuc(a1-4)]GlcNAc(b1-2)Man(a1-3)[Fuc(a1-2)Gal(b1-3)[Fuc(a1-4)]GlcNAc(b1-2)Man(a1-6)]Man(b1-4)GlcNAc(b1-4)[Fuc(a1-6)]GlcNAc(b1-4)[Fuc(a1-6)]GlcNAc
Summary of the method: as §1

[17] = biological target: Fuc(a1-2)Gal(b1-3)[Fuc(a1-4)]GlcNAc(b1-3)[Fuc(a1-3)[Gal(b1-4)]GlcNAc(b1-6)]Gal(b1-4)Glc
Summary of the method: as §1

[18] = biological target: Fuc(a1-2)Gal(b1-3)[Fuc(a1-4)]GlcNAc(b1-3)[Gal(b1-4)GlcNAc(b1-6)]Gal(b1-4)Glc
Summary of the method: as §1

Fuc(a1-2)Gal(b1-4)Glc = biological target: Fuc(a1-2)Gal(b1-4)Glc
Summary of the method: as §1

Fuc(a1-2)Gal(b1-4)Glc6S = biological target: Fuc(a1-2)Gal(b1-4)Glc6S
Summary of the method: as §1

Fuc(a1-2)Gal(b1-4)GlcNAc = biological target: Fuc(a1-2)Gal(b1-4)GlcNAc
Summary of the method: as §1

[19] = biological target: Fuc(a1-2)Gal(b1-4)GlcNAc(b1-2)Man
Summary of the method: as §1

[20] = biological target: Fuc(a1-2)Gal(b1-4)GlcNAc(b1-2)Man(a1-3)[Fuc(a1-2)Gal(b1-4)GlcNAc(b1-2)Man(a1-6)]Man(b1-4)GlcNAc(b1-4)GlcNAc
Summary of the method: as §1

[21] = biological target: Fuc(a1-2)Gal(b1-4)GlcNAc(b1-2)Man(a1-3)[Fuc(a1-2)Gal(b1-4)GlcNAc(b1-2)Man(a1-6)]Man(b1-4)GlcNAc(b1-4)[Fuc(a1-6)]GlcNAc
Summary of the method: as §1

[22] = biological target: Fuc(a1-2)Gal(b1-4)GlcNAc(b1-2)[Fuc(a1-2)Gal(b1-4)GlcNAc(b1-4)]Man(a1-3)[Fuc(a1-2)Gal(b1-4)GlcNAc(b1-2)Man(a1-6)]Man(b1-4)GlcNAc(b1-4)GlcNAc
Summary of the method: as §1

[23] = biological target: Fuc(a1-2)Gal(b1-4)GlcNAc(b1-3)Gal(b1-4)GlcNAc
Summary of the method: as §1

[24] = biological target: Fuc(a1-2)Gal(b1-4)GlcNAc(b1-3)Gal(b1-4)GlcNAc(b1-2)Man(a1-3)[Fuc(a1-2)Gal(b1-4)GlcNAc(b1-3)Gal(b1-4)GlcNAc(b1-2)Man(a1-6)]Man(b1-4)GlcNAc(b1-4)GlcNAc
Summary of the method: as §1

B1: PX14375F-bfa-539-21-539 (Bacteroides fragilis) (protein)
chain: EDFLQKDPPSSPSQSVFWQKKSDFESALAGTYSVMYSGVFSQIMPCLDGLTDNAIVQHSEGTYGWAKTIAQGDLTPNQGGFVTDIYGNCYKGIARVHILMEQLDQYTGSDISADEKKFMLAQCKALRGYFYSWLYQCYKEVPVVTQSLDLNTMYQPKATRAEVLNRVMTDYDEAISELPDKLYSDSQTSGRFTVSAVKALKARILLFDAYDSNGKAISSKMEEVLTLLQSIKGYSLAARVRDNFISEKQLASPEIMFSVRFLRPNLTHSMDLYYGAWAVLDPTRNMVDAFECTDGKPWGESPLTVRPDESILYGNDDALKKAERAKMFMNRDRRLYESVNHSMMANFVDDGFKDEEVQVNESNNKGPTGFSALKYVQPTDVTPGYSTVSDADIVVLRYAHVLLMIAEAENEAHGATTTALNAINEVRTRSGQPAIEAGISQDDLRERIRNEWRIETCFEGLRYFQLKRWKLMDKRVNGVEDPAYPGYIKVYKPAFEFFPIPQSEIDKAGGVLKQDPAYE
glycan array binding signal (z-score) (Fuc(a1-2)Gal): -0.47
glycan array binding signal (z-score) (Fuc(a1-2)Gal(b1-3)GalNAc): -0.358
glycan array binding signal (z-score) [1]: 0.852
glycan array binding signal (z-score) [2]: -0.227
glycan array binding signal (z-score) [3]: -0.131
glycan array binding signal (z-score) [4]: 1.21
glycan array binding signal (z-score) [5]: -0.373
glycan array binding signal (z-score) (Fuc(a1-2)Gal(b1-3)GlcNAc): 0.011
glycan array binding signal (z-score) [6]: 0.619
glycan array binding signal (z-score) [7]: 0.043
glycan array binding signal (z-score) [8]: 0.087
glycan array binding signal (z-score) [9]: 0.181
glycan array binding signal (z-score) [10]: 0.787
glycan array binding signal (z-score) [11]: -0.583
glycan array binding signal (z-score) [12]: 0.71
glycan array binding signal (z-score) [13]: 0.693
glycan array binding signal (z-score) [14]: -0.276
glycan array binding signal (z-score) [15]: -0.377
glycan array binding signal (z-score) [16]: 0.238
glycan array binding signal (z-score) [17]: -0.345
glycan array binding signal (z-score) [18]: -0.219
glycan array binding signal (z-score) (Fuc(a1-2)Gal(b1-4)Glc): -1.02
glycan array binding signal (z-score) (Fuc(a1-2)Gal(b1-4)Glc6S): -0.391
glycan array binding signal (z-score) (Fuc(a1-2)Gal(b1-4)GlcNAc): -0.102
glycan array binding signal (z-score) [19]: 0.77
glycan array binding signal (z-score) [20]: -0.707
glycan array binding signal (z-score) [21]: -0.439
glycan array binding signal (z-score) [22]: 0.017
glycan array binding signal (z-score) [23]: -0.058
glycan array binding signal (z-score) [24]: -0.208
